The other results are listed elsewhere or left out. Many values rest on one well or one pass, so single values are uncertain.
What was measured:
Test in all cases: delta PSI of alternative exon relative to 0.4% DMSO control (RT-PCR) (percentage points); higher = more exon inclusion
Conditions in all cases: concentration: not stated (optimised per compound); Neuro-2a
[1] = tested on: Asph alternative exon (endogenous)
Method: (§1)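 Reads PSI of the Mef2d reporter microexon and of endogenous mouse neural alternative exons. dPSI is relative to the 0.4% DMSO control, single replicate.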

[2] = tested on: Trappc9 microexon (endogenous)
Method: as §1

[3] = tested on: Zdhhc20 alternative exon (endogenous)
Method: as §1

[4] = tested on: Ergic3 microexon (endogenous)
Method: as §1

[5] = tested on: Mast2 alternative exon (endogenous)
Method: as §1

[6] = tested on: Mgrn1 alternative exon (endogenous)
Method: as §1
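Also: exons read include endogenous Mef2d, Mast2, Ergic3 and Trappc9 microexons plus the longer neural-regulated Zdhhc20, Mgrn1 and Asph cassette exons, alongside the reporter microexon.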

| Structure (SMILES) | delta PSI of alternative exon [1] | delta PSI of alternative exon [2] | delta PSI of alternative exon [3] | delta PSI of alternative exon [4] | delta PSI of alternative exon [5] | delta PSI of alternative exon [6] |
| --- | --- | --- | --- | --- | --- | --- |
| O=C(Nc1cccc(Cl)c1)Nc1ccc(Sc2ccccc2)nc1Sc1ccccc1 | 2.12 | -1.51 | 1.38 | – | – | – |
| O=C1OC(CC(=O)c2csc3ccccc23)c2ccccc21 (stereo not drawn) | – | – | 0.284 | -7.88 | 1.61 | 4.14 |
| C(=NNc1ccc2ccccc2n1)c1ccccn1 | – | – | 0.347 | -13 | -0.196 | 2.55 |
| Cc1[nH]c2ccccc2c1CCNCc1ccc(/C=C/C(=O)NO)cc1 [Panobinostat] | – | – | 23 | 11.5 | 15.4 | 1.09 |
| CCCNC(=O)Nc1ccc(OC(F)(F)F)cc1 | – | – | 2.49 | -9.96 | – | 10.1 |
| CC1=C(/C=C/C(C)=C/C=C/C(C)=C/C(=O)Nc2ccc(O)cc2)C(C)(C)CCC1 [Fenretinide] | – | – | 0.176 | -4.09 | – | 4.02 |
| Cn1ncc(C(=O)Nc2ccc(Cl)c(Cl)c2)c1[N+](=O)[O-] | – | – | 7.48 | -19.7 | 1.65 | 9.63 |
| CC(=O)Nc1cccc(-n2c(=O)n(C3CC3)c(=O)c3c(Nc4ccc(I)cc4F)n(C)c(=O)c(C)c32)c1 [Trametinib] | – | – | 19.2 | -0.125 | 23.9 | 9.89 |
| COCCCNC(=S)N/N=C/c1cccc(OC)c1O | 4.35 | -1.68 | 9.57 | – | – | – |
| CC(=O)Nc1ccc(-c2ccc(NC(C)=O)cc2)cc1 | – | – | 3.08 | -7.4 | – | -3.65 |
| N#CCc1ccc(Nc2nc(Nc3cc(C4CCC4)[nH]n3)c3ccccc3n2)cc1 | – | – | 20.7 | 6.79 | 27.4 | 4.28 |
| CN(C)S(=O)(=O)c1ccc2c(c1)/C(=C/c1cc3c([nH]1)CCCC3)C(=O)N2 | – | – | 1.12 | -10.7 | 4.68 | 2.85 |
| CCCCc1nc2cc(/C=C/C(=O)NO)ccc2n1CCN(CC)CC | – | – | 21.5 | 12.5 | – | 3.92 |
| NC(=NOC(=O)c1c(F)cccc1Cl)c1ccc([N+](=O)[O-])o1 | – | – | -2.56 | -10.7 | – | 16.9 |
| O=C(Nc1ccc2[nH]nc(-c3ccncc3)c2c1)[C@@H]1CCN(CC(=O)N2CCN(c3ccc(-c4ncccn4)cc3)CC2)C1 | – | – | 11.2 | -2 | – | 5.72 |
| COc1cc2c(cc1O)CC[C@@H]1[C@@H]2CC[C@]2(C)[C@@H](O)CC[C@@H]12 [2-Methoxyestradiol] | – | – | -1.77 | -18.1 | -4.47 | 5.1 |
| Nc1ncn(C2OC(CO)C(O)C2O)c(=O)n1 (stereo not drawn) [Azacytidine-5] | -10.4 | 0.747 | -12 | – | – | – |
| Oc1nc2ccccc2nc1-c1c[nH]c2ccccc12 | – | – | 1.47 | -12.7 | 3.67 | 3.73 |
| O=C(CCCCCCC(=O)Nc1ccccc1)NO [Vorinostat] | – | – | 23.5 | 17 | – | 4.99 |
| COc1ccc(C=Cc2nc3ccccc3s2)cc1OC | – | – | -2.16 | -2.37 | -0.0263 | 3.93 |
| CCN(CC)Cc1ccc2cc(COC(=O)Nc3ccc(C(=O)NO)cc3)ccc2c1 [Givinostat] | – | – | 21.9 | 15.7 | – | -3.57 |

| Structure (SMILES) | delta PSI of alternative exon [1] | delta PSI of alternative exon [2] | delta PSI of alternative exon [3] | delta PSI of alternative exon [4] | delta PSI of alternative exon [5] | delta PSI of alternative exon [6] |
| --- | --- | --- | --- | --- | --- | --- |
| C(=C\c1ccccc1)/C(=N/Nc1ccccc1)c1ccccc1 | – | – | 3.44 | -4.27 | 1.88 | -2.99 |
| Cn1cc(CNCC2CCN(c3ncc(C(=O)NO)cn3)CC2)c2ccccc21 | – | – | 20.2 | 9.18 | – | 0.345 |
| CCN1C(=CC(=S)Nc2ccccc2)Sc2ccccc21 | – | – | 1.87 | 1.96 | – | 5.69 |
| CC(/C=C/C(=O)NO)=C\[C@@H](C)C(=O)c1ccc(N(C)C)cc1 [Trichostatin A] | – | – | 24.5 | 8.29 | – | 2.13 |
| O=C(NCCNc1nccc(C(F)(F)F)n1)Nc1ccccc1Cl | -10.4 | -5.22 | -17.6 | – | – | – |
| CC1(COc2ccc3c(c2)ncn3-c2ccc3cccc(N4CCC(N)CC4)c3n2)COC1 [Crenolanib] | – | – | 13.2 | -10.7 | – | 10.7 |
| CC1(c2ccc([N+](=O)[O-])cc2)NN=C(c2ccccc2)S1 (stereo not drawn) | – | – | -0.116 | -7.29 | – | 3.19 |
| Cc1ccc(S(=O)(=O)Nc2ccc3ncccc3c2)cc1 | – | – | 27.8 | 0.0478 | – | 16 |
| O=C(CCCCCN1C(=O)c2cccc3cccc(c23)C1=O)NO [Scriptaid] | – | – | 20.5 | 6.1 | – | -5.38 |
| c1ccc(C2=Nc3ccccc3NC(c3ccccc3)C2)cc1 (stereo not drawn) | – | – | -0.229 | -1.15 | 1.34 | 1.58 |
| COc1ccc(C=C2CCCc3ccccc3C2=O)cc1 | – | – | -2.81 | -8.38 | -1.13 | 3.73 |
| O=C(/C=C/c1ccc(CN(CCO)CCc2c[nH]c3ccccc23)cc1)NO | – | – | 22.2 | 9.68 | – | 9.32 |
| O=S(=O)(N/N=C/c1cc(Cl)cc(Cl)c1O)c1ccc(Cl)cc1 | – | – | 23.8 | -23.6 | – | 25.2 |
| N#Cc1c(O)nsc1Nc1ccc(Cl)cc1 | – | – | -5.32 | -17.5 | – | 18.4 |
| S=C(NN=Cc1ccccn1)NC1CC2C=CC1C2 (stereo not drawn) | – | – | 2.11 | -1.78 | 0.946 | 5 |
| N#CC1(C#N)C(C#N)(C#N)C12CCCCC2 | -7.07 | 1.42 | -9.17 | – | – | – |
| N#Cc1c(-c2cccs2)oc(-n2cccc2)c1-c1cc(Br)cs1 | – | – | 4.23 | -11.6 | – | 1.58 |
| O=C(Nc1cccc([N+](=O)[O-])c1)C(C(=O)Nc1cccc([N+](=O)[O-])c1)C12CC3CC(CC(C3)C1)C2 | – | – | 0.503 | -14 | – | 7.78 |
| Cc1ccc(S(=O)(=O)N/N=C/c2cc(Cl)ccc2O)cc1 | – | – | 25 | -19.9 | – | 26.2 |
| Cc1cc(C(=O)NOCCO)c(Nc2ccc(I)cc2F)n(C)c1=O | – | – | 15.9 | -1.71 | 23.6 | 8.39 |

— the supplement of paper PMC11283458
